Results published in the supplement of paper PMC4604168 (melanoma cell lines).
This is one part of the list. Many values rest on one well or one pass, so single values are uncertain.

Tests used:
Experiment in all cases: cell count relative to DMSO control; melanoma cells; higher = more viable cells
Conditions in all cases: library dose: low library concentration; 72 h
[1] = system: COLO792
[2] = system: COLO800
[3] = system: COLO829
[4] = system: G361
[5] = system: IPC-298
[6] = system: IST-MEL1
[7] = system: LB2518-MEL
[8] = system: LOXIMVI
[9] = system: MEL-HO
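Further: cell number obtained by counting DAPI-stained nuclei in high-throughput microscope images with image analysis software, screen run in 1,536-well plates.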

SMILES | cell count [1] [%] | cell count [2] [%] | cell count [3] [%] | cell count [4] [%] | cell count [5] [%] | cell count [6] [%] | cell count [7] [%] | cell count [8] [%] | cell count [9] [%]
C=CCNC1=C2C[C@@H](C)C[C@H](OC)[C@H](O)[C@@H](C)/C=C(\C)[C@H](OC(N)=O)[C@@H](OC)/C=C\C=C(/C)C(=O)NC(=CC1=O)C2=O [Tanespimycin] + N#Cc1c(O)c2c(-c3ccc(-c4ccccc4O)cc3)csc2[nH]c1=O [A769662] (first compound 0.002 µM, partner dose 2 µM) | 110 | 114 | 90.4 | 89.5 | 104 | 100 | 93.2 | 96.3 | 94.6
C[C@@H](Oc1cc(-c2cnn(C3CCNCC3)c2)cnc1N)c1c(Cl)ccc(F)c1Cl [Crizotinib] + N#Cc1c(O)c2c(-c3ccc(-c4ccccc4O)cc3)csc2[nH]c1=O [A769662] (first compound 0.2 µM, partner dose 2 µM) | 102 | 112 | 99.3 | 102 | 97 | 97.9 | 99.7 | 114 | 81.8
C=CCNC1=C2C[C@@H](C)C[C@H](OC)[C@H](O)[C@@H](C)/C=C(\C)[C@H](OC(N)=O)[C@@H](OC)/C=C\C=C(/C)C(=O)NC(=CC1=O)C2=O [Tanespimycin] + COc1ccc2c(c1)CCC1C2CCC2(C)C(NCCCCCCN3C(=O)C=CC3=O)CCC12 [U73122] (first compound 0.002 µM, partner dose 0.4 µM) | 94 | 110 | 92.9 | 103 | 104 | 96.5 | 100 | 93.4 | 108
C=CCNC1=C2C[C@@H](C)C[C@H](OC)[C@H](O)[C@@H](C)/C=C(\C)[C@H](OC(N)=O)[C@@H](OC)/C=C\C=C(/C)C(=O)NC(=CC1=O)C2=O [Tanespimycin] + O=S(=O)(c1ccccc1)N(CC(F)(F)F)c1ccc(C(O)(C(F)(F)F)C(F)(F)F)cc1 [T0901317] (first compound 0.002 µM, partner dose 1.4 µM) | 94.2 | 95.8 | 89.1 | 90.4 | 95.3 | 105 | 82.4 | 87.3 | 78
CN1CCN(c2ccc3nc(-c4c(N)c5c(F)cccc5[nH]c4=O)[nH]c3c2)CC1 [Dovitinib] + O=C(Nc1ccccc1)c1cc([N+](=O)[O-])ccc1Cl [GW9662] (first compound 0.1 µM, partner dose 2 µM) | 107 | 74.2 | 90.6 | 108 | 99.4 | 111 | 81.9 | 107 | 80.7
C[C@@H](Oc1cc(-c2cnn(C3CCNCC3)c2)cnc1N)c1c(Cl)ccc(F)c1Cl [Crizotinib] + O=c1cc(-c2cccc3c2Sc2ccccc2S3)oc(N2CCOCC2)c1 [KU55933] (first compound 0.2 µM, partner dose 1 µM) | 131 | 119 | 95.5 | 107 | 101 | 99.2 | 116 | 143 | 93.9
CNC(=O)c1cc(Oc2ccc(NC(=O)Nc3ccc(Cl)c(C(F)(F)F)c3)cc2)ccn1 [sorafenib] + O=S(=O)(c1ccccc1)N(CC(F)(F)F)c1ccc(C(O)(C(F)(F)F)C(F)(F)F)cc1 [T0901317] (first compound 0.4 µM, partner dose 1.4 µM) | 118 | 141 | 103 | 95.3 | 91.2 | 105 | 118 | 119 | 92.6
CS(=O)(=O)CCNCc1ccc(-c2ccc3ncnc(Nc4ccc(OCc5cccc(F)c5)c(Cl)c4)c3c2)o1 [lapatinib] + Cn1cc(/C=C2\C(=O)Nc3cccnc32)c2ccccc21 [GW441756] (first compound 0.8 µM, partner dose 0.4 µM) | 92.6 | 78.1 | 111 | 95.1 | 99.7 | 98.4 | 108 | 106 | 92.6
CS(=O)(=O)CCNCc1ccc(-c2ccc3ncnc(Nc4ccc(OCc5cccc(F)c5)c(Cl)c4)c3c2)o1 [lapatinib] + Cn1cncc1[C@@](N)(c1ccc(Cl)cc1)c1ccc2c(c1)c(-c1cccc(Cl)c1)cc(=O)n2C [tipifarnib] (first compound 0.8 µM, partner dose 0.01 µM) | 89.6 | 71.7 | 103 | 82.3 | 105 | 90.2 | 91.9 | 87.3 | 93
CNC(=O)c1cc(Oc2ccc(NC(=O)Nc3ccc(Cl)c(C(F)(F)F)c3)cc2)ccn1 [sorafenib] + Cc1cc(N2CCOCC2)cc2[nH]c(-c3c(NC[C@@H](O)c4cccc(Cl)c4)cc[nH]c3=O)nc12 [BMS536924] (first compound 0.4 µM, partner dose 0.2 µM) | 101 | 47.1 | 83.7 | 84.7 | 91.2 | 96.7 | 94.6 | 110 | 103
CNC(=O)c1cc(Oc2ccc(NC(=O)Nc3ccc(Cl)c(C(F)(F)F)c3)cc2)ccn1 [sorafenib] + COc1cc(N2CCC(N3CCN(C)CC3)CC2)ccc1Nc1ncc(Cl)c(Nc2ccccc2S(=O)(=O)C(C)C)n1 [NVP-TAE684] (first compound 0.4 µM, partner dose 0.08 µM) | 98.6 | 107 | 84.6 | 92.5 | 92.2 | 93.2 | 105 | 119 | 90.2
CS(=O)(=O)CCNCc1ccc(-c2ccc3ncnc(Nc4ccc(OCc5cccc(F)c5)c(Cl)c4)c3c2)o1 [lapatinib] + c1cc(-c2cnn3cc(-c4ccc(OCCN5CCCCC5)cc4)cnc23)ccn1 [Dorsomorphin] (first compound 0.8 µM, partner dose 0.4 µM) | 75.2 | 81.6 | 109 | 67.5 | 98.3 | 95.8 | 98.3 | 102 | 80.5
C=CCNC1=C2C[C@@H](C)C[C@H](OC)[C@H](O)[C@@H](C)/C=C(\C)[C@H](OC(N)=O)[C@@H](OC)/C=C\C=C(/C)C(=O)NC(=CC1=O)C2=O [Tanespimycin] + O=C(CCCCCCC(=O)Nc1ccccc1)NO [vorinostat] (first compound 0.002 µM, partner dose 0.08 µM) | 98.8 | 137 | 97.1 | 82.7 | 97.3 | 96.4 | 108 | 121 | 94.4
C=CCNC1=C2C[C@@H](C)C[C@H](OC)[C@H](O)[C@@H](C)/C=C(\C)[C@H](OC(N)=O)[C@@H](OC)/C=C\C=C(/C)C(=O)NC(=CC1=O)C2=O [Tanespimycin] + CC(C)CCN1c2nc(Nc3cc(F)c(O)c(F)c3)ncc2N(C)C(=O)C1C [BID1870] (first compound 0.002 µM, partner dose 0.2 µM) | 93.3 | 141 | 111 | 114 | 89.7 | 97 | 100 | 104 | 94.4
C=CCNC1=C2C[C@@H](C)C[C@H](OC)[C@H](O)[C@@H](C)/C=C(\C)[C@H](OC(N)=O)[C@@H](OC)/C=C\C=C(/C)C(=O)NC(=CC1=O)C2=O [Tanespimycin] + COc1cc(Nc2ncc(F)c(Nc3ccc4c(n3)NC(=O)C(C)(C)O4)n2)cc(OC)c1OC [Tamatinib] (first compound 0.002 µM, partner dose 0.4 µM) | 54.2 | 98.6 | 94.2 | 89.1 | 80.2 | 94.8 | 62.1 | 86.8 | 88
C=CCNC1=C2C[C@@H](C)C[C@H](OC)[C@H](O)[C@@H](C)/C=C(\C)[C@H](OC(N)=O)[C@@H](OC)/C=C\C=C(/C)C(=O)NC(=CC1=O)C2=O [Tanespimycin] + CCCCCCCCCCCC1=C(O)C(=O)C=C(O)C1=O [Embelin] (first compound 0.002 µM, partner dose 1.2 µM) | 101 | 146 | 94.2 | 93.2 | 94.8 | 96.3 | 100 | 111 | 72.5
C[C@@H](Oc1cc(-c2cnn(C3CCNCC3)c2)cnc1N)c1c(Cl)ccc(F)c1Cl [Crizotinib] + O=C1NC(=O)/C(=C/c2ccc(-c3ccc(F)cc3O)o2)S1 [AS252424] (first compound 0.2 µM, partner dose 1 µM) | 99 | 96.7 | 92.1 | 101 | 97.4 | 99.9 | 97 | 80.7 | 93.4
CN1CCN(c2ccc3nc(-c4c(N)c5c(F)cccc5[nH]c4=O)[nH]c3c2)CC1 [Dovitinib] + COc1cc(Nc2ncc(F)c(Nc3ccc4c(n3)NC(=O)C(C)(C)O4)n2)cc(OC)c1OC [Tamatinib] (first compound 0.1 µM, partner dose 0.4 µM) | 57.9 | 82.1 | 82.3 | 88 | 74.1 | 103 | 77.2 | 90.6 | 110
C=CCNC1=C2C[C@@H](C)C[C@H](OC)[C@H](O)[C@@H](C)/C=C(\C)[C@H](OC(N)=O)[C@@H](OC)/C=C\C=C(/C)C(=O)NC(=CC1=O)C2=O [Tanespimycin] + C[C@@H]1CCN(C(=O)CC#N)C[C@@H]1N(C)c1ncnc2[nH]ccc12 [CP690550] (first compound 0.002 µM, partner dose 1 µM) | 83.5 | 94.3 | 116 | 100 | 97.2 | 84 | 87.9 | 91 | 88.3
CS(=O)(=O)CCNCc1ccc(-c2ccc3ncnc(Nc4ccc(OCc5cccc(F)c5)c(Cl)c4)c3c2)o1 [lapatinib] + C=CCn1c(=O)c2cnc(Nc3ccc(N4CCN(C)CC4)cc3)nc2n1-c1cccc(C(C)(C)O)n1 [MK1775] (first compound 0.8 µM, partner dose 0.02 µM) | 72.8 | 166 | 92.2 | 103 | 98.2 | 102 | 95.3 | 113 | 100
